Some of the results follow. Many values rest on one well or one pass, so single values are uncertain.
Columns and labels:
Test in all cases: cell count relative to DMSO control; melanoma cells; higher = more viable cells
Settings in all cases: library dose: low library concentration; 72 h
COLO792 = system: COLO792
COLO800 = system: COLO800
COLO829 = system: COLO829
G361 = system: G361
IPC-298 = system: IPC-298
IST-MEL1 = system: IST-MEL1
LOXIMVI = system: LOXIMVI
MEL-HO = system: MEL-HO
MeWo = system: MeWo
RPMI7951 = system: RPMI7951
RVH-421 = system: RVH-421
SkMel28 = system: SkMel28
SkMel2 = system: SkMel2
SkMel30 = system: SkMel30
SkMel5 = system: SkMel5
UACC257 = system: UACC257
UACC62 = system: UACC62
LB2518-MEL = system: LB2518-MEL
MZ2-MEL = system: MZ2-MEL
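Note: cell number obtained by counting DAPI-stained nuclei in high-throughput microscope images with image analysis software, screen run in 1,536-well plates.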

| SMILES | cell count (COLO792) [%] | cell count (COLO800) [%] | cell count (COLO829) [%] | cell count (G361) [%] | cell count (IPC-298) [%] | cell count (IST-MEL1) [%] | cell count (LOXIMVI) [%] | cell count (MEL-HO) [%] | cell count (MeWo) [%] | cell count (RPMI7951) [%] | cell count (RVH-421) [%] | cell count (SkMel28) [%] | cell count (SkMel2) [%] | cell count (SkMel30) [%] | cell count (SkMel5) [%] | cell count (UACC257) [%] | cell count (UACC62) [%] | cell count (LB2518-MEL) [%] | cell count (MZ2-MEL) [%] |
| --- | --- | --- | --- | --- | --- | --- | --- | --- | --- | --- | --- | --- | --- | --- | --- | --- | --- | --- | --- |
| Cc1nc(Nc2ncc(C(=O)Nc3c(C)cccc3Cl)s2)cc(N2CCN(CCO)CC2)n1 [dasatanib] + CN(C)S(=O)(=O)c1ccc2c(c1)/C(=C/c1cc3c([nH]1)CCCC3)C(=O)N2 [SU6656] (first compound 0.004 µM, partner dose 0.4 µM) | 61.9 | 99.1 | 65.6 | 76.6 | 94.1 | 78.6 | 27.4 | 83.9 | 82.2 | 52.2 | 83 | 64.9 | 92.7 | 83.8 | 85.5 | 86.6 | 78.5 |  |  |
| Cc1nc(Nc2ncc(C(=O)Nc3c(C)cccc3Cl)s2)cc(N2CCN(CCO)CC2)n1 [dasatanib] + C=CCn1c(=O)c2cnc(Nc3ccc(N4CCN(C)CC4)cc3)nc2n1-c1cccc(C(C)(C)O)n1 [MK1775] (first compound 0.004 µM, partner dose 0.02 µM) | 53.7 | 73.4 | 79 | 79.3 | 102 | 80.5 | 47 | 80.2 | 84.7 | 71.1 | 57.1 | 63.7 | 89.3 | 84.6 | 80.2 | 68.2 | 84.7 | 83.2 | 73.5 |
| C=CCn1c(=O)c2cnc(Nc3ccc(N4CCN(C)CC4)cc3)nc2n1-c1cccc(C(C)(C)O)n1 + OCCn1cc(-c2cnc3nnn(Cc4ccc5ncccc5c4)c3n2)cn1 [PF04217903] (first compound 0.02 µM, partner dose 1 µM) | 104 | 120 | 97.5 | 99.4 | 99.4 | 102 | 82.6 | 90.3 | 102 | 108 | 75.7 | 96.6 | 98 | 80.5 | 87.1 | 112 | 89.7 |  |  |
| C[C@]1(c2nc3c(C(N)=O)cccc3[nH]2)CCCN1 [Veliparib] + Cc1cc(N2CCOCC2)cc2[nH]c(-c3c(NC[C@@H](O)c4cccc(Cl)c4)cc[nH]c3=O)nc12 [BMS536924] (first compound 1.4 µM, partner dose 0.2 µM) | 85 | 65.2 | 89.8 | 80.4 | 94 | 101 | 97.3 | 95 | 83.1 | 100 | 96.4 | 79.3 |  | 95.1 | 93.1 | 77.9 | 77.4 |  |  |
| C=CCn1c(=O)c2cnc(Nc3ccc(N4CCN(C)CC4)cc3)nc2n1-c1cccc(C(C)(C)O)n1 + CO[C@@H]1[C@H](N(C)C(=O)c2ccccc2)C[C@H]2O[C@]1(C)n1c3ccccc3c3c4c(c5c6ccccc6n2c5c31)C(=O)NC4 [Midostaurin] (first compound 0.02 µM, partner dose 0.08 µM) | 76.2 | 60.5 | 79 | 78.7 | 93.5 | 84.9 | 56.3 | 90.8 | 78.9 | 70.2 | 78.6 | 102 | 71.9 | 76.5 | 101 | 98.6 | 88.5 | 81.4 | 91.8 |
| NC(=O)Nc1cc(-c2cccc(F)c2)sc1C(=O)N[C@H]1CCCNC1 + C[C@@H]1CCN(C(=O)CC#N)C[C@@H]1N(C)c1ncnc2[nH]ccc12 [CP690550] (first compound 0.02 µM, partner dose 1 µM) | 104 | 84.9 | 119 | 105 | 101 | 105 | 95.4 | 122 | 111 | 99.1 | 131 | 114 | 110 | 135 | 102 | 137 | 89.8 | 128 | 104 |
| OCCn1cc(-c2cnc3nnn(Cc4ccc5ncccc5c4)c3n2)cn1 + C[C@@H]1CCN(C(=O)CC#N)C[C@@H]1N(C)c1ncnc2[nH]ccc12 [CP690550] (first compound 1 µM, partner dose 1 µM) | 83.9 | 117 | 93 | 99.4 | 103 | 109 | 121 | 94.3 | 111 | 109 | 106 | 98 | 100 | 113 | 118 | 90.2 | 119 | 100 | 108 |
| CO[C@@H]1[C@H](N(C)C(=O)c2ccccc2)C[C@H]2O[C@]1(C)n1c3ccccc3c3c4c(c5c6ccccc6n2c5c31)C(=O)NC4 [Midostaurin] + C[C@@H]1CCN(C(=O)CC#N)C[C@@H]1N(C)c1ncnc2[nH]ccc12 [CP690550] (first compound 0.08 µM, partner dose 1 µM) | 90 | 86.2 | 92.2 | 83.2 | 94.5 | 94.3 | 69.1 | 100 | 81 | 72.4 | 78.1 | 102 | 73.4 | 96.8 | 85.3 | 86.9 | 90.3 | 97.7 | 95.1 |
| C[C@]1(c2nc3c(C(N)=O)cccc3[nH]2)CCCN1 [Veliparib] + CC1(C)NC(=O)N(c2ccc([N+](=O)[O-])c(C(F)(F)F)c2)C1=O [nilutamide] (first compound 1.4 µM, partner dose 1 µM) | 90.3 | 70.9 | 107 | 103 | 97.1 | 96.5 | 98.7 | 93 | 95.4 | 86.4 | 111 | 93.4 | 101 | 93.9 | 89.3 | 86.4 | 83.7 | 89.6 | 99.3 |
| OCCn1cc(-c2cnc3nnn(Cc4ccc5ncccc5c4)c3n2)cn1 + COc1cc2c(Oc3ccc4[nH]c(C)cc4c3F)ncnc2cc1OCCCN1CCCC1 [cediranib] (first compound 1 µM, partner dose 0.4 µM) | 90.2 | 148 | 91.3 | 97.1 | 97.9 | 99.3 | 68.8 | 97.5 | 93.2 | 101 | 99.1 | 103 | 100 | 114 | 101 | 94 | 96 | 93.5 | 96.5 |
| Cc1nc(Nc2ncc(C(=O)Nc3c(C)cccc3Cl)s2)cc(N2CCN(CCO)CC2)n1 [dasatanib] + C[C@@H]1CCN(C(=O)CC#N)C[C@@H]1N(C)c1ncnc2[nH]ccc12 [CP690550] (first compound 0.004 µM, partner dose 1 µM) | 61.2 | 79.5 | 79.3 | 92.1 | 106 | 90.5 | 62.5 | 78.4 | 97.5 | 79.1 | 80 | 81.3 | 86.4 | 94.4 | 97.7 | 93.9 | 73.9 | 89.1 | 85.4 |
| C=CCn1c(=O)c2cnc(Nc3ccc(N4CCN(C)CC4)cc3)nc2n1-c1cccc(C(C)(C)O)n1 + Cc1cc(N2CCOCC2)cc2[nH]c(-c3c(NC[C@@H](O)c4cccc(Cl)c4)cc[nH]c3=O)nc12 [BMS536924] (first compound 0.02 µM, partner dose 0.2 µM) | 81 | 63.5 | 95.7 | 86.4 | 88.9 | 99.6 | 112 | 111 | 96.9 | 94.9 | 81.1 | 82.4 | 76.9 | 83 | 81.5 | 79.7 | 68.8 | 80.8 | 95.9 |
| Cc1nc(Nc2ncc(C(=O)Nc3c(C)cccc3Cl)s2)cc(N2CCN(CCO)CC2)n1 [dasatanib] + NC(=O)Nc1cc(-c2cccc(F)c2)sc1C(=O)N[C@H]1CCCNC1 [AZD7762] (first compound 0.004 µM, partner dose 0.02 µM) | 64.5 | 94.9 | 78.2 | 116 | 102 | 88.5 | 62 | 84.1 | 102 | 65.7 | 97.4 | 79.1 |  | 96.8 | 93.7 | 90.3 | 98.1 |  |  |
| NCC(=O)Nc1ccc(-n2nc(C(F)(F)F)cc2-c2ccc3c(ccc4ccccc43)c2)cc1 + CN(NC(=O)CC(=O)NN(C)C(=S)c1ccccc1)C(=S)c1ccccc1 [STA4783] (first compound 1 µM, partner dose 0.006 µM) | 73.3 | 42.3 | 76.2 | 80.3 | 81.4 | 81.3 | 69.5 | 82.7 | 56.3 | 95.3 | 87.3 | 101 | 80.4 | 50.9 | 108 | 110 | 76.7 | 62.4 | 92.7 |
| NC(=O)Nc1cc(-c2cccc(F)c2)sc1C(=O)N[C@H]1CCCNC1 + O=C(Nc1cccc(Cl)c1)Nc1ncc(CCNc2ncnc3ccsc23)s1 [SNS314] (first compound 0.02 µM, partner dose 0.0008 µM) | 102 | 81.4 | 82.6 | 108 | 110 | 111 | 92.3 | 102 | 104 | 107 | 121 | 99.4 |  | 136 | 101 | 97.8 | 94.1 |  |  |
| C[C@]1(c2nc3c(C(N)=O)cccc3[nH]2)CCCN1 [Veliparib] + CN(C)S(=O)(=O)c1ccc2c(c1)/C(=C/c1cc3c([nH]1)CCCC3)C(=O)N2 [SU6656] (first compound 1.4 µM, partner dose 0.4 µM) | 97.1 | 85.4 | 80.7 | 85.5 | 99.3 | 97.2 | 87.6 | 96.3 | 92.6 | 126 | 92.2 | 79.6 | 96.8 | 98.5 | 103 | 98.3 | 87.3 | 87 | 103 |
| Cc1nc(Nc2ncc(C(=O)Nc3c(C)cccc3Cl)s2)cc(N2CCN(CCO)CC2)n1 [dasatanib] + CC1(C)NC(=O)N(c2ccc([N+](=O)[O-])c(C(F)(F)F)c2)C1=O [nilutamide] (first compound 0.004 µM, partner dose 1 µM) | 66.5 | 94.1 | 84.9 | 88.6 | 97.2 | 85.3 | 91.3 | 84.7 | 88 | 84.8 | 72.7 | 76.2 | 91.8 | 90.4 | 88 | 85.4 | 67.6 | 93.6 | 84.5 |
| C[C@]1(c2nc3c(C(N)=O)cccc3[nH]2)CCCN1 [Veliparib] + COc1cc2c(Oc3ccc4[nH]c(C)cc4c3F)ncnc2cc1OCCCN1CCCC1 [cediranib] (first compound 1.4 µM, partner dose 0.4 µM) | 84.2 | 78 | 118 | 88 | 98.6 | 106 | 73 | 73.5 | 95.5 | 100 | 89.2 | 90.9 |  | 94 | 106 | 75 | 85.2 |  |  |

Reference: the supplement of paper PMC4604168 (melanoma cell lines)
